{"source": "patent US20040022772", "biological_target": "p160 BCR (UniProt P11274)", "sequence (P11274 whole entry)": "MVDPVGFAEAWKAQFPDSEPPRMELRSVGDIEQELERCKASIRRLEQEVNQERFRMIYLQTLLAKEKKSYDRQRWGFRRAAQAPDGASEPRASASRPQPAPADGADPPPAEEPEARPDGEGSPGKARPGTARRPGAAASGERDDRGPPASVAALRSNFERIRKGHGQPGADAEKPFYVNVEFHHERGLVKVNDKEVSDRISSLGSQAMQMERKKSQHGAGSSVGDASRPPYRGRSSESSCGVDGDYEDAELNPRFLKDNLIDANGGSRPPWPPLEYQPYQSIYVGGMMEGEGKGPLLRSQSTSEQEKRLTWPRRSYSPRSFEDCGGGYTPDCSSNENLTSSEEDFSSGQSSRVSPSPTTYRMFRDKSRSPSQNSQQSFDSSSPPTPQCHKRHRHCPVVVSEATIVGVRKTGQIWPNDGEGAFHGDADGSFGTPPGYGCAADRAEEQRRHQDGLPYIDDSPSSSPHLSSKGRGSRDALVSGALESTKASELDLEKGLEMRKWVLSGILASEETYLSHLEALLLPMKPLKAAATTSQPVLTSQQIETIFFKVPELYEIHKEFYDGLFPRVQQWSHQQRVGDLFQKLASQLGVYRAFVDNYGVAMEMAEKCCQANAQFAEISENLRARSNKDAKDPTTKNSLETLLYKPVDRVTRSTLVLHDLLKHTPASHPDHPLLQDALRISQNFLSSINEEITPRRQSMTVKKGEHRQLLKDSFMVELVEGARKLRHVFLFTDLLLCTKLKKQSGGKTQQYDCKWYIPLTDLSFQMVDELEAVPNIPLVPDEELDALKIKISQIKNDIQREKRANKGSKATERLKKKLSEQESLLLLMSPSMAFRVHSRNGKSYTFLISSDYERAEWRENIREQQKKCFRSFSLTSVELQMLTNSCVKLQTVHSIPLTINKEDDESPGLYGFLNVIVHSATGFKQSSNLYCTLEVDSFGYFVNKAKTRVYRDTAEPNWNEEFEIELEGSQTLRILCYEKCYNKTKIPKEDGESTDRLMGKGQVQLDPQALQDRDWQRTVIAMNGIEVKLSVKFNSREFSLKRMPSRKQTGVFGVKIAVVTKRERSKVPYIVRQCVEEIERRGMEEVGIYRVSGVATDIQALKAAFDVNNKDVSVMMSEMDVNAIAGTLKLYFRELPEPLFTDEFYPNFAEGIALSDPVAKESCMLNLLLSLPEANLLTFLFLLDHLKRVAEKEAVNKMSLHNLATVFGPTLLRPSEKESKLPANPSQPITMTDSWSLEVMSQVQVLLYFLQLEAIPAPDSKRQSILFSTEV"}
{"substance": "p210 BCR-ABL", "values": [{"measurement": "serine/threonine transphosphorylation of casein by Bcr mixed in vitro with Bcr-Abl", "value": "the level of casein serine/threonine phosphorylation was greatly inhibited"}]}
